# Laboratory results published in article PMC4336329 (PLoS ONE, 2015).
# Screen size: about 310,000 compounds; about 14,000 (4.5%) showed an effect of 50% or more. Effects have a minus sign here. The list shows a part of the results.
# Biological target: human ether-à-go-go-related gene (hERG) potassium channel (human, UniProt Q12809)
# Assay: primary screen, population patch clamp on CHO cells stably expressing hERG
# 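Also: peak tail current of the secondary pulse compared with the same well before compound.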
# Sequence of human ether-à-go-go-related gene (hERG) potassium channel (Q12809 whole entry, looked up): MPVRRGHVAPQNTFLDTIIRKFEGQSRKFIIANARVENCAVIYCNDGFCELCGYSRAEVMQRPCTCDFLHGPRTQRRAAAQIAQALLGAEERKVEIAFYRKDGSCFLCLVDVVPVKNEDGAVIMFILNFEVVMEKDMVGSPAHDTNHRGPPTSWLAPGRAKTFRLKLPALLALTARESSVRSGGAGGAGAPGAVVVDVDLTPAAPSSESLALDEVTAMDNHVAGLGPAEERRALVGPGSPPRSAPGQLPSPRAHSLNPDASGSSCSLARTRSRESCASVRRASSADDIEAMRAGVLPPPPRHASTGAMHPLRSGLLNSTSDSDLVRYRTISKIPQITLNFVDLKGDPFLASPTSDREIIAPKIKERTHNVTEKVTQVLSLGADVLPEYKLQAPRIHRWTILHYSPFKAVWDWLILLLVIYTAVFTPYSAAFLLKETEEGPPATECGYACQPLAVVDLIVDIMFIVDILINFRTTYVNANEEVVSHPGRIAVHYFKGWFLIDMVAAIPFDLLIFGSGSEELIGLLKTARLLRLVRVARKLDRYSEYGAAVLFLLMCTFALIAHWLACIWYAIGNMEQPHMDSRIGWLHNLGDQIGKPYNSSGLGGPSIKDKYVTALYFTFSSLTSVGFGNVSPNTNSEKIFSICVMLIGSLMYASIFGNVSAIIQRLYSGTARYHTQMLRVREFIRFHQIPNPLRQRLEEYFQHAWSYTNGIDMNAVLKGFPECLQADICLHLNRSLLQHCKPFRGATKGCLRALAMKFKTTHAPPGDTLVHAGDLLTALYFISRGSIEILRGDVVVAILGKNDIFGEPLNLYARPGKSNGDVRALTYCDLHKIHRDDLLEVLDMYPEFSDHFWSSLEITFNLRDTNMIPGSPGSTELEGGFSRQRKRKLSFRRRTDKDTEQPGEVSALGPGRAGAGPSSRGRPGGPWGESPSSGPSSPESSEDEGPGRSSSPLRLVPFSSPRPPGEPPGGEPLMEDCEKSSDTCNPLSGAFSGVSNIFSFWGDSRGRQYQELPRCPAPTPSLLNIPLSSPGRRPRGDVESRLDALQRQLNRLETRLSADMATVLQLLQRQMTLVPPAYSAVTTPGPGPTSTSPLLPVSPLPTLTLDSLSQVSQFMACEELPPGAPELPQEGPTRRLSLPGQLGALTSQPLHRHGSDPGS
row,Structure (SMILES),"hERG current change (%, negative = inhibition) at 10uM"
1,CN(C)Cc1nc2c(c(=O)[nH]1)C(C)(C)Cc1ccccc1-2,-7.33%
2,O=C(c1ccccc1)N1CCN(C(=O)c2ccc([N+](=O)[O-])cc2)CC1,-53.9%
3,CCCCn1c(O)c(C(CC)=Nc2ccc(OC)cc2OC)c(=O)[nH]c1=O,-13.8%
4,Fc1ccc(-c2noc(-c3ccc4c(c3)CCO4)n2)cc1,8.19%
5,Cc1ccc2oc(=O)c3cnn(CC(=O)NCCc4ccsc4)c3c2c1,-12.2%
6,Cc1csc(NC(=O)c2ccc3c(=O)n4c(nc3c2)CCCCC4)n1,-80.3%
7,COc1ccc(C(=O)CN2CCN(c3cc(C)nc4ccccc34)CC2)cc1,-68.8%
8,CC(NC(=O)c1nn(C)c(=O)c2ccccc12)c1ccccc1 (stereo not shown),-13.1%
9,CCOc1cccc(-c2c(C(=O)N/N=C/c3ccc(C)o3)nnn2-c2nonc2N)c1,15.2%
10,COc1ccc(N2C(=O)CCC(C(=O)N(C)CCc3ccccn3)C2c2ccc(OC)c(OC)c2)cc1 (stereo not shown),-2.28%
11,O=C(CSCC(=O)N1CCCCC1)OCC(=O)c1c[nH]c2ccccc12,-5.48%
12,O=C(Nc1ccccc1)c1cccc(N2C(=O)C3C4C=CC(C4)C3C2=O)c1 (stereo not shown),7.97%
13,CCNS(=O)(=O)c1ccc(NC(=O)Nc2ccc3c(c2)OCO3)cc1,6.69%
14,Cc1ccc(S(=O)(=O)NCCCNS(=O)(=O)c2ccc(C)cc2)cc1,-17.9%
15,COc1ccccc1CN1CC(C(=O)NCCN2CCNC2=O)CCC1=O (stereo not shown),24.2%
16,COc1cccc(N(CC(=O)NCCSc2ccc(Cl)cc2)S(C)(=O)=O)c1,-9.08%
17,CCc1ccc(OCC2c3cc(OC)c(OC)cc3CCN2C(=S)NC)cc1 (stereo not shown),-10.3%
18,Cc1ccc2c(c1)c1nnc(SCC(=O)Nc3cccc(Cl)c3C)nc1n2CC(=O)O,19.6%
19,COc1cccc(C(=O)Nc2ccc(N3CCCC3)cc2)c1,1.2%
20,Cc1cccc(N(C(=O)Nc2ccc(Cl)cc2)C2=NCC(C)S2)n1 (stereo not shown),8.19%
21,COc1cccc(OC)c1OCCNCCO,21.5%
22,O=C(NC(=S)Nc1ccccc1Cl)C1CC1,19.7%

row,Structure (SMILES),"hERG current change (%, negative = inhibition) at 10uM"
1,COC(=O)CSc1nc(COc2ccccc2)nc2ccccc12,9.88%
2,CCOc1ccc(N2C(=O)CC(N3CCC(O)(c4ccc(Br)cc4)CC3)C2=O)cc1 (stereo not shown),-49.1%
3,Cc1ccc(S(=O)(=O)NCC(=O)N2CCC(C)CC2)cc1,-0.855%
4,COc1ccc([N+](=O)[O-])cc1NC(=O)C(C)N1CCCC1 (stereo not shown),13.3%
5,COc1ccccc1OCCNC(=O)c1cccs1,1.32%
6,CCOC(=O)c1c(-n2cnnn2)sc2c1CCCC2,8.13%
7,Cc1ccc(-n2ncc3c(=O)n(CC(=O)Nc4cccc(Cl)c4)cnc32)cc1C,10.6%
8,CCOC(=O)C1(Cc2cccc(OC)c2)CCN(Cc2cccn2-c2nccs2)CC1,-72%
9,CC1CN(C(=O)COC(=O)c2ccc(O)cc2)CC(C)O1 (stereo not shown),17.4%
10,Cc1cccc(-c2noc(CNC(=O)Nc3ccc(F)cc3)n2)c1,8.56%
11,Cc1ccc(-c2noc(CN(C(=O)CCCCCN3C(=O)c4ccccc4C3=O)C(C)C)n2)cc1,-15.3%
12,Cc1cc(C)c2[nH]c(=O)c(C(c3nnnn3CC3CCCO3)N3CCCC(C)C3)cc2c1 (stereo not shown),-12.5%
13,COc1ccc(C2c3ccc(O)cc3Oc3ncn4nc(-c5ccco5)nc4c32)cc1OC (stereo not shown),22.8%
14,Cc1csc(NC(=O)c2cn3ccccc3n2)n1,-4.54%
15,Cc1nnc(SCC(=O)NC2CCC(C)CC2)s1 (stereo not shown),-6.69%
16,CC(=O)Nc1c2c(nn1-c1cccc(Cl)c1)CS(=O)C2 (stereo not shown),-1.6%
17,O=S1(=O)CCOCCCN1Cc1ccccc1Br,1.21%
18,Nc1nc(NCC2CCCO2)nc(NCC2CCCO2)c1[N+](=O)[O-] (stereo not shown),-10.7%
19,O=S(=O)(c1ccc(-c2nnc(SCc3ccccc3)o2)cc1)N1CCCC1,-3.26%
20,Cc1cc(OCC(=O)NC2CCS(=O)(=O)C2)c2c3c(c(=O)oc2c1)CCC3 (stereo not shown),-3.87%
21,CC(=O)OC[C@]1(OC(C)=O)C[C@@]23CC[C@H]4[C@@](C)(CCC[C@@]4(C)C(=O)O)[C@@H]2CC[C@@H]1C3,4.84%
22,Cc1c(C(=O)N2CCc3ccccc3C2)oc2ccc(S(=O)(=O)N3CCCCCC3)cc12,-19.2%

row,Structure (SMILES),"hERG current change (%, negative = inhibition) at 10uM"
1,CCCCCCCCNC1=CC(=O)CC(C)(C)C1,-48.2%
2,O=S(=O)(Nc1ccc(N2CCOCC2)cc1)c1ccc2ccccc2c1,3.3%
3,Cc1ccc(S(=O)(=O)c2cnc3cc(C)nn3c2N)cc1,0.694%
4,Cc1coc2cc3oc(=O)c(Cc4ccccc4)c(C)c3cc12,6.78%
5,COc1ccc(CN(C(=O)c2cccc(OC)c2)C2CCS(=O)(=O)C2)cc1 (stereo not shown),-8.88%
6,CCOC(CNc1ncnc2sc(-c3ccccc3)cc12)OCC,-11.5%
7,CCN(CC)c1ccc2c(C)c(-c3ccc(N)cc3)c(=O)oc2c1,10.6%
8,O=C1c2cccc3c(N4CCCCC4)ccc(c23)C(=O)N1c1ccc(O)cc1,18.6%
9,Cc1ccc(OCCn2c(SCCO)nc3c(N)ncnc32)cc1,-14.4%
10,C(=N\NC(=Nc1ccccc1)c1ccccn1)/c1ccccn1,7.19%
11,C#CCOc1c(Cl)cc(/C=C2/C(=O)ON=C2C)cc1OC,22.3%
12,O=C(O)C1C2C=CC(O2)C1C(=O)NCCC1=CCCCC1 (stereo not shown),7.94%
13,O=C(COC(=O)C1CCC1)Nc1ccccc1Sc1ccccc1,7.34%
14,Cc1ccc(CNS(=O)(=O)c2c(C(=O)N3CCCCC3)c(C)n(C)c2C)o1,22.1%
15,Nc1nc2ccccc2n1CCOc1ccc(Br)cc1,-61.2%
16,CC(=O)Nc1ncc(Cc2cccc(Cl)c2)s1,9.03%
17,CCOC(=O)c1sc(NC(=O)COC(=O)C(CCSC)NC(C)=O)nc1C (stereo not shown),-14.7%
18,CCCSc1nnc(NC(=O)c2sc3nc(-c4cccs4)ccc3c2N)s1,10%
19,CC1CCN(c2ccccc2NC(=S)NC(=O)c2ccc(-c3cccc([N+](=O)[O-])c3)o2)CC1,3.63%
20,COc1cccc(C2CC(c3cccc(Br)c3)n3ncnc3N2)c1 (stereo not shown),-47.4%
21,COC(=O)c1ccc(Cn2nc(-c3ccccc3)ccc2=O)cc1,4.93%
22,Cc1cc(NC(=O)Cn2cc([N+](=O)[O-])cn2)n(Cc2ccc(F)cc2)n1,-11.9%

row,Structure (SMILES),"hERG current change (%, negative = inhibition) at 10uM"
1,CCc1nc2ccc(F)cc2c(C(=O)NC2CCCCC2C)c1C (stereo not shown),-4.83%
2,S=C(Nc1ccccc1Cl)N1CCC(c2ccccc2)C1 (stereo not shown),-2.34%
3,COc1ccc2nc(NC(=O)CSc3nc4ccccc4o3)sc2c1,9.02%
4,c1coc(-c2nnc(-c3cccs3)o2)c1,13.6%
5,O=C(OCn1nnc2ccccc2c1=O)c1cccs1,-8.86%
6,Cc1ccc(C)c(N2CCN(C(=O)Cn3c(=O)[nH]c4ccsc4c3=O)CC2)c1,-4.12%
7,COc1ccc(C(=O)N=S2CCN(C(=O)c3ccc(Cl)cc3)CC2)cc1,-29%
8,CC(C)(C)c1ccc(OCC(=O)NNC(=S)NC(=O)c2ccccc2[N+](=O)[O-])c(Br)c1,23.1%
9,Cc1ccc(-n2c(=O)cc(N3CC(C)OC(C)C3)[nH]c2=O)cc1 (stereo not shown),0.907%
10,Cc1ccc(NC(=O)CNC(=O)Cc2cccc3ccccc23)c(O)c1,22.8%
11,Cc1nn(-c2ccccc2)c2c1C(c1ccc(F)cc1)C(C#N)=C(N)O2 (stereo not shown),8.18%
12,COc1cc(C2CC(=O)C3=C(C2)Nc2ncnn2C3c2cccs2)cc(OC)c1OC (stereo not shown),1.83%
13,Cc1ccc(NC(=O)c2cccc(S(=O)(=O)N3CCCC3)c2)nc1,-7.18%
14,O=C(Nc1sc2c(c1C(=O)O)CCCCC2)c1ccccc1F,26.5%
15,COc1cc(OC)c(NC(=S)NCc2ccc(F)cc2)cc1Cl,-0.244%
16,COc1ccccc1NC(=O)c1ccc(N)cc1,5.63%
17,CC1CN(C(=O)c2cccc(COc3ccccc3Cl)c2)CC(C)O1 (stereo not shown),-49.3%
18,COc1ccc(C)cc1NC(=O)c1ccc(NS(=O)(=O)c2c(C)noc2C)cc1,3.13%
19,Cc1ccc(-c2nc(-c3cccnc3)sc2CC(=O)Nc2ccc3nc(C)sc3c2)cc1,1.56%
20,O=C(Nc1ccc(C(F)(F)F)cc1)C1CCCCN1S(=O)(=O)c1ccccc1 (stereo not shown),-23.3%
21,CCn1cc(/C=C/C(=O)Nc2ccn(Cc3c(F)c(F)cc(F)c3F)n2)cn1,-14.9%
22,CC1(C)OC(=O)C=C[C@]2(C)[C@H]3CC[C@@]4(C)[C@H](c5ccoc5)OC(=O)[C@H]5O[C@]54[C@]3(C)C(=O)C[C@@H]12,-10.3%
